Measurements reported in paper PMC5388433.
Numbering of substitutions follows the chain as printed. These are yes or no findings as the source states them, for the method shown. For some of these results: Binding seen in cells or lysates may run through a third protein. Some results given as binding are weak or reduced against the parent protein; the word gives no strength. For some of these results: Sequences can lack the tags named with a protein.

By UniProt entry, the sequences of proteins in these tests, tags left out. Where a name states a change or a piece, a line headed by the entry shows the natural chain unless it says otherwise.
UniProt Q13185: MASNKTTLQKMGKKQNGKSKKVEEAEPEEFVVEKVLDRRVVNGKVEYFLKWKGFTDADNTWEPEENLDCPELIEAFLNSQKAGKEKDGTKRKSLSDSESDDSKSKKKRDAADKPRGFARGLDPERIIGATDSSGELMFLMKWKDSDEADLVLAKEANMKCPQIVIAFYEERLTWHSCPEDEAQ
UniProt P83916: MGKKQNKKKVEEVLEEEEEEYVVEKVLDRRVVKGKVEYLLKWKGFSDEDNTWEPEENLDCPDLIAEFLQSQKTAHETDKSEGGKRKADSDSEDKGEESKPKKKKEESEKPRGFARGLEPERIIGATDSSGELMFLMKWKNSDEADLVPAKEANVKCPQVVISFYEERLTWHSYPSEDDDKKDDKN
UniProt P45973: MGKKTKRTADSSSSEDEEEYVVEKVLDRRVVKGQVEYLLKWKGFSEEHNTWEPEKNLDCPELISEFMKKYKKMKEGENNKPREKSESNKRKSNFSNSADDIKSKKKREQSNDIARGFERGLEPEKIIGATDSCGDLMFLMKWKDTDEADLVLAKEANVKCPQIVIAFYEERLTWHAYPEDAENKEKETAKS

Molecular target: T1, KDM2A_(543-811) nucleosome recognition module (human) (UniProt Q9Y2K7)
T1 sequence: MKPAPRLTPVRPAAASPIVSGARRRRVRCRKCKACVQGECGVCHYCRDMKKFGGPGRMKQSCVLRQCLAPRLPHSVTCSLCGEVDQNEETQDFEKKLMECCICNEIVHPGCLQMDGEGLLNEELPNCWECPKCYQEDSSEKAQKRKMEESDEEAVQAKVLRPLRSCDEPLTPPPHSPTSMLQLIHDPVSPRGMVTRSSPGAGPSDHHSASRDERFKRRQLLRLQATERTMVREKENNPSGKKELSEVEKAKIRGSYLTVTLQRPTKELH
Experiment: SEC; 50 μg of each protein mixed in 50 μl, 15 min at 4°C; Superdex 200 Increase 3.2/300; 50 mM Tris pH7.5, 100 mM NaCl, 5 mM β-mercaptoethanol; fractions on Coomassie-stained gels; both purified

Row | binding | Substance
1 | binds | purified HP1γ (from UniProt Q13185 1-183)
2 | binds | purified HP1β (from UniProt P83916 1-185)

Molecular target: T2, KDM2A (endogenous) (human (endogenous in HeLa)) (UniProt Q9Y2K7)
T2 sequence: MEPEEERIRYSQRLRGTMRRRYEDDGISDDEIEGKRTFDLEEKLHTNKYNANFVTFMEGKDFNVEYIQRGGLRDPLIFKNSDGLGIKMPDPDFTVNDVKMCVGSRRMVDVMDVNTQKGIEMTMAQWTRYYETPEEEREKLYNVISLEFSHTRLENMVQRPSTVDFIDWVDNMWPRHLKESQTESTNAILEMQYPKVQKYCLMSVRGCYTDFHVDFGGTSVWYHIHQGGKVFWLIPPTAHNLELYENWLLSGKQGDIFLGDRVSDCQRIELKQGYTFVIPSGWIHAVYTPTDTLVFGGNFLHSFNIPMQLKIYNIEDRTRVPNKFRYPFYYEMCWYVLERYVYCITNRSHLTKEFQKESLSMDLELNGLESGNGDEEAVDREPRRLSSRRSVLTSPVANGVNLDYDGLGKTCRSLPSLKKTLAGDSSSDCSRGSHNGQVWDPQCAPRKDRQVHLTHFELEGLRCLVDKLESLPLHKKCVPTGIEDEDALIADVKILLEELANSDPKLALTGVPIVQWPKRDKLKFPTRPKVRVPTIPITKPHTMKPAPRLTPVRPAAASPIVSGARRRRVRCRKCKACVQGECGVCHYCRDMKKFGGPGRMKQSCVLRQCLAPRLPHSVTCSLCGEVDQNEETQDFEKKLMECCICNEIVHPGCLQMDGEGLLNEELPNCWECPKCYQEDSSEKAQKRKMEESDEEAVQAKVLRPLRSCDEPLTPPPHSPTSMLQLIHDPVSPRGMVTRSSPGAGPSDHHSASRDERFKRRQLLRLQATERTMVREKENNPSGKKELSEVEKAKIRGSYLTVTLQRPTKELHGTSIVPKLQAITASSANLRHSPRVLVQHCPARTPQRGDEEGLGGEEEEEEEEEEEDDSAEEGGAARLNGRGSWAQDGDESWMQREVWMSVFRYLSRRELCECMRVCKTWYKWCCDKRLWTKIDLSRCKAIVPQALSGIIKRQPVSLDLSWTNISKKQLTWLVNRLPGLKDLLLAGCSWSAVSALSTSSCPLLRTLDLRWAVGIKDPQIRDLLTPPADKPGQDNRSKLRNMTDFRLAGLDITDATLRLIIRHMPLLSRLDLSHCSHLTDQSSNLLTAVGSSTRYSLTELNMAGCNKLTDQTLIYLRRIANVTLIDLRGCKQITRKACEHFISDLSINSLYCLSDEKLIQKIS
Experiment: co-IP; endogenous KDM2A immunoprecipitated with anti-KDM2A antibody from 1 mg HeLa nuclear extract (soluble and chromatin-bound fractions, Benzonase-treated) in the presence of 50 μg ethidium bromide; Dynabeads Protein G; washes with 150 mM NaCl, 0.1% NP40; immunoblot against HP1 α, β and γ

Row | binding | Substance
3 | binds | HP1β (endogenous) (from UniProt P83916 1-185)
4 | binds | HP1γ (endogenous) (from UniProt Q13185 1-183)
5 | binds | HP1α (endogenous) (from UniProt P45973 1-191)

Molecular target: T3, FLAG-GFP-tagged KDM2A V801A/L803A (HeLa) (human) (UniProt Q9Y2K7)
T3 sequence: T2 sequence with V801A, L803A
Experiment: co-IP; FLAG-GFP-KDM2A and FLAG-HP1α co-expressed in HeLa cells; extracts adjusted to 150 mM NaCl; KDM2A precipitated with GFP-Trap beads, 4°C; immunoblot against the FLAG tag

Row | binding | Substance
6 | no binding | FLAG-tagged HP1α WT (HeLa) (from UniProt P45973 1-191)

Molecular target: T4, FLAG-GFP-tagged WT KDM2A (HeLa) (human) (UniProt Q9Y2K7)
T4 sequence: T2 sequence
Experiment: as above

Row | binding | Substance
7 | no binding | FLAG-tagged HP1α W174A (HeLa) (from UniProt P45973 1-191)
8 | binds | FLAG-tagged HP1α WT (HeLa) (from UniProt P45973 1-191)
9 | no binding | FLAG-tagged HP1α I165K (HeLa) (from UniProt P45973 1-191)
10 | binds | FLAG-tagged HP1α V22M (HeLa) (from UniProt P45973 1-191)

Molecular target: T5, FLAG-GFP-tagged WT KDM2A (BHK) (human) (UniProt Q9Y2K7)
T5 sequence: T2 sequence
Experiment: fluorescent three-hybrid (F3H) assay; BHK cells with a genomic lacO array, triple-transfected; GFP-KDM2A anchored to the array by GBP-LacI; recruitment of mRuby2-HP1 to the lacO spot seen by confocal microscopy

Row | binding | Substance
11 | binds | mRuby2-fused HP1α V22M (from UniProt P45973 1-191)
12 | binds | mRuby2-fused HP1α (WT) (from UniProt P45973 1-191)
13 | no binding | mRuby2-fused HP1α I165K (from UniProt P45973 1-191)
14 | binds | mRuby2-fused HP1β (from UniProt P83916 1-185)
15 | no binding | mRuby2-fused HP1α W174A (from UniProt P45973 1-191)
16 | binds | mRuby2-fused HP1γ (from UniProt Q13185 1-183)
